Results on 54 molecules are retold here after publication PMC4336329 (PLoS ONE, 2015).

Each structure is given as a SMILES string. Among all 310,000 compounds or so, about 2,200 (0.71%) showed an effect of 50% or more. The effect is printed as a negative number. Some of the results follow.

The test deals with human ether-à-go-go-related gene (hERG) potassium channel (human, UniProt Q12809). In words: primary screen, population patch clamp on CHO cells stably expressing hERG.
human ether-à-go-go-related gene (hERG) potassium channel, sequence (Q12809 whole entry, looked up): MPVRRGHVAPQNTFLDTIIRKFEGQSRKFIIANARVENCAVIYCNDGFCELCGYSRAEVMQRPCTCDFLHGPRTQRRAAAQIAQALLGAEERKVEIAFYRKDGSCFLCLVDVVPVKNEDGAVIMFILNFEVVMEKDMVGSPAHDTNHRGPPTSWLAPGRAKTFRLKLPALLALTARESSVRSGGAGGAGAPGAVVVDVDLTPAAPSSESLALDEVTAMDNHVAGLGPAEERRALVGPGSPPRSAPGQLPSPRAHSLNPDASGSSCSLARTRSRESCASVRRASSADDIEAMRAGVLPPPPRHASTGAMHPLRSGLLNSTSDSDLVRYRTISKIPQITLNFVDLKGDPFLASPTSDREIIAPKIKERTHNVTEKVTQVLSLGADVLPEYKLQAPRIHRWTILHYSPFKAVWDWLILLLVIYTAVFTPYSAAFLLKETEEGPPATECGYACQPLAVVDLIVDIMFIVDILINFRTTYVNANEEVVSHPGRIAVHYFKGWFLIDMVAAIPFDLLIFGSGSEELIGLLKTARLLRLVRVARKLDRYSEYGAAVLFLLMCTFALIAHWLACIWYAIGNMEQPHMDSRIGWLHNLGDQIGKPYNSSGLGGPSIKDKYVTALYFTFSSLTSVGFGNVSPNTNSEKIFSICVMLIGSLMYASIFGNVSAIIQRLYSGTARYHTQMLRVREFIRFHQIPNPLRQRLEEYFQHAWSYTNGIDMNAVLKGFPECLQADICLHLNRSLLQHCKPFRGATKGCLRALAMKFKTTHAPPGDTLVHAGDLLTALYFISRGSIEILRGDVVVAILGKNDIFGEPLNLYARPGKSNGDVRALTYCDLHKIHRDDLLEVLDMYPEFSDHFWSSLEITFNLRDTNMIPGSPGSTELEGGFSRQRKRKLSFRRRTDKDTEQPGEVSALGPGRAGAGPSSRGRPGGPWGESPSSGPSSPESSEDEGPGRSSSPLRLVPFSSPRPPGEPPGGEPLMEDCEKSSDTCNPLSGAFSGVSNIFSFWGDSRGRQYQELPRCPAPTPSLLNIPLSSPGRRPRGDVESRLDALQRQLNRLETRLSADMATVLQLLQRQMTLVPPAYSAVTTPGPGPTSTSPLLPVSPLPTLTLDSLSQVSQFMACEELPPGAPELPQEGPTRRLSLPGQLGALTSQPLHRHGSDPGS
With `O=C(Nc1ccon1)c1cc2ccccc2oc1=O`, the “hERG current change (%, negative = inhibition) at 1uM” value was 1.51%.
Next, `CCOC(=O)N1CCN(C(=O)COC(=O)C2CCN(S(=O)(=O)c3ccc(C)c(C)c3)CC2)CC1`: -13.3%; `CCCc1cc(C(=O)NNC(=S)NCc2ccccc2)cs1`: 5.72%.
With `Cc1cccc(-c2nn(-c3ccccc3)cc2C(=O)N2CCN(C3CCS(=O)(=O)C3)CC2)c1` (stereo not drawn), the “hERG current change (%, negative = inhibition) at 1uM” value is -8.92%.
With `COc1cc(CN2CCC(CO)(Cc3cccc(C(F)(F)F)c3)CC2)ccc1F`, the “hERG current change (%, negative = inhibition) at 1uM” value is recorded as -15.9%.
Regarding `COc1ccc(NC(=O)OC(C)C)cc1`, the “hERG current change (%, negative = inhibition) at 1uM” value turned out to be 4.78%.
For `Cc1cc(C)nc(SCC(=O)Nc2sc3c(c2C#N)CCC(C)C3)n1` (stereo not drawn), the “hERG current change (%, negative = inhibition) at 1uM” value turned out to be 12.5%.
To `COc1ccccc1NC(=O)Nc1nc(CC(=O)N2CCN(c3ccccc3OC)CC2)cs1` belongs 11.7%; to `O=C(O)/C=C\C(=O)O.OCCN1CCN(CC/C=C2/c3ccccc3CSc3ccccc32)CC1`, 10.2%.
Next, `CCOC(=O)C1=C(C)NC(=S)NC1c1ccc(-c2ccc(Cl)cc2)o1` (stereo not drawn): 14.5%.
On to `CCC(C(=O)NC1CCCC1)N(C(=O)c1snc(C(N)=O)c1N)c1ccc2c(c1)OCCO2` (stereo not drawn), for which the “hERG current change (%, negative = inhibition) at 1uM” value was found to be 8.22%.
`Cc1noc(N)c1C1(O)C(=O)N(C(C)C)c2ccccc21` (stereo not drawn): the “hERG current change (%, negative = inhibition) at 1uM” value was 9.37%.
With `O=C(Nc1ccccn1)c1cc(-n2cnnc2)ccc1Cl`, the “hERG current change (%, negative = inhibition) at 1uM” value was -7.07%.
In the case of `Cc1cc(C(=O)N2CCCC(C(=O)c3cc(F)ccc3F)C2)c(C)o1` (stereo not drawn), the “hERG current change (%, negative = inhibition) at 1uM” value is reported as 11.8%.
Take `Cc1cccc(N(Cc2ccccc2)C(=O)Cc2ccc(S(=O)(=O)N3CCOCC3)s2)c1`: the “hERG current change (%, negative = inhibition) at 1uM” value is listed as 11%.
In the case of `Cc1ccc(NS(=O)(=O)c2cc([N+](=O)[O-])ccc2N/N=C/c2sc(N3CCOCC3)nc2-c2ccccc2)c(C)c1`, the “hERG current change (%, negative = inhibition) at 1uM” value came to 4.56%.
Regarding `Oc1c(Br)cc(Br)cc1CNn1cnnc1`, the “hERG current change (%, negative = inhibition) at 1uM” value turned out to be 19.2%.
On to `CCCN(C(=O)c1cn(C)c(=O)c2ccccc12)c1ccccc1C`, for which the “hERG current change (%, negative = inhibition) at 1uM” value is listed as 8.74%.
Regarding `Cc1cc2nc(-c3ccc(=O)[nH]c3)n(C)c2cc1C`, the “hERG current change (%, negative = inhibition) at 1uM” value stood at 11%.
Turning to `CC(C)(C)C(=O)NC(=S)Nc1ccc(S(=O)(=O)Nc2nccs2)cc1`, the “hERG current change (%, negative = inhibition) at 1uM” value was determined as 19%.
With `COC(=O)C1=C(c2cccc(C#N)c2)C[C@@H]2CC[C@H]1N2C(=O)NCCOc1ccc(OC)cc1`, the “hERG current change (%, negative = inhibition) at 1uM” value was -4.73%.
With `CS(=O)(=O)N(CC(=O)N1CCCCC1)Cc1ccccc1`, the “hERG current change (%, negative = inhibition) at 1uM” value came to 3.04%.
For the molecule `Cc1cc2nc(C)n(CCCNC(=O)Nc3cccc4ccccc34)c2cc1C`, the “hERG current change (%, negative = inhibition) at 1uM” value came to 12.6%.
Consider `CCCn1nc(C(=O)NNC(=O)CCOc2ccccc2OCC)c2ccccc2c1=O`, for which the “hERG current change (%, negative = inhibition) at 1uM” value is on record as 6.61%.
In the case of `CC(=O)NCCC1CCN(C(=O)c2cc(COc3ccc(C)nc3)on2)CC1`, the “hERG current change (%, negative = inhibition) at 1uM” value is on record as 25.2%.
On to `CCCCOc1ccc(-c2nc(=S)[nH][nH]2)cc1`, for which the “hERG current change (%, negative = inhibition) at 1uM” value came to 7.3%.
Next, `Cc1ccc(CNC(=O)C(=O)NCCC2CCCCN2S(=O)(=O)c2cccs2)cc1` (stereo not drawn): 6.62%; `Cc1ccc(S(=O)(=O)NCCC(C)C)cc1[N+](=O)[O-]`: -1.84%.
To `NC(=O)Cc1ccc(C(=O)c2ccc(Cl)cc2)s1` belongs 13.5%; to `COC(=O)C1=C(CS(=O)(=O)c2ccc(C)cc2)NC(=O)NC1c1ccc(OC)c(OC)c1` (stereo not drawn), 17.5%.
In the case of `O=C1OCc2cc(NS(=O)(=O)c3cccs3)ccc21`, the “hERG current change (%, negative = inhibition) at 1uM” value is reported as 11.6%.
Next, `COc1ccc(OC)c(S(=O)(=O)N2CCC(C(=O)N3CCc4ccccc4C3)CC2)c1`: 3.11%.
Next, `COc1ccc(OC)c2c(N)c(C#N)c(C(F)(F)C(F)(F)F)nc12`: 10.1%; `CCCc1cc(=O)n2nc(N3CCC(C(=O)NCc4ccc(C)o4)CC3)sc2n1`: -29.3%.
With `COCCCn1c(SCc2ccc(OC)cc2)nc2cc(OC)c(OC)cc2c1=N`, the “hERG current change (%, negative = inhibition) at 1uM” value is on record as -1.06%.
On to `COCCCNC(=O)CCCn1c(=O)c2ccccc2n(Cc2cccc([N+](=O)[O-])c2)c1=O`, for which the “hERG current change (%, negative = inhibition) at 1uM” value amounted to 3.88%.
As for `COc1ccc(OC)c(NC(=S)N2c3ccccc3CC2C)c1` (stereo not drawn), the “hERG current change (%, negative = inhibition) at 1uM” value is reported as 4.6%.
Turning to `Cn1c(=O)c2c(nc(N3CCOCC3)n2CCc2ccccc2)n(C)c1=O`, the “hERG current change (%, negative = inhibition) at 1uM” value is given as 20.2%.
Next, `OCC1(CC2CCCCO2)CCN(Cc2nc3ccccc3[nH]2)CC1` (stereo not drawn): 14.8%; `COc1ccc(C(=O)CCS(=O)(=O)c2ccc(F)cc2)cc1OC`: 16.8%.
As to `CCCCNC(=O)c1onc(CSc2cccc(C)c2)c1C(=O)O`, the “hERG current change (%, negative = inhibition) at 1uM” value amounted to 8.22%.
To `CCOC(=O)C1(Cc2cccc(OC)c2)CCN(Cc2cccn2-c2ccccn2)CC1` belongs -79.4%.
Turning to `CCOc1ccc(NC(=O)c2ccc(N3CC4CC(C3)c3cccc(=O)n3C4)c(NC(=O)CCN3CCOCC3)c2)cc1` (stereo not drawn), the “hERG current change (%, negative = inhibition) at 1uM” value is reported as 12.1%.
Turning to `COc1cc(CC(=O)NCCc2ccc(OCc3ccccc3)cc2)c([N+](=O)[O-])cc1OC`, the “hERG current change (%, negative = inhibition) at 1uM” value came to 5.36%.
With `COc1cccc(-c2nc(CS(=O)(=O)CC(=O)NCCC(C)C)c(C)o2)c1`, the “hERG current change (%, negative = inhibition) at 1uM” value was determined as 14.4%.
As for `CCOC(=O)c1cc(-c2ccccc2)nc2nc(N3CCCCC3)sc12`, the “hERG current change (%, negative = inhibition) at 1uM” value was determined as 11.4%.
For `CCC1Oc2ccccc2N(CC(=O)Nc2ccc(OC)cc2OC)C1=O` (stereo not drawn), the “hERG current change (%, negative = inhibition) at 1uM” value amounted to 13.2%.
Next, `COc1ccc(Nc2c3ccccc3nc3ccccc23)cc1`: -20.2%.
For `CCOC(=O)CN1C(=O)NC2(CCCc3ccccc32)C1=O` (stereo not drawn), the “hERG current change (%, negative = inhibition) at 1uM” value is listed as 12.9%.
With `CC(=O)Nc1ccc(SC[C@H](CC(C)C)N2CCN(CCc3ccccc3)CCC2=O)cc1`, the “hERG current change (%, negative = inhibition) at 1uM” value is given as -26.2%.
Next, `CC(C)CN1C(=O)c2ccc(C(=O)Nc3ccc(O)cc3C(=O)O)cc2C1=O`: 13.2%.
Take `O=C(COc1ccc2c3c(c(=O)oc2c1)CCC3)N1CCN(c2ccc(F)cc2)CC1`: the “hERG current change (%, negative = inhibition) at 1uM” value is 3.26%.
Consider `COc1ccc(/C=C/C(=O)Nc2nnc(C(C)C)s2)cc1OC`, for which the “hERG current change (%, negative = inhibition) at 1uM” value came out at 4.69%.
As to `CCCCCN(C(=O)CCC(=O)OCC(=O)c1c(C)cc(C)cc1C)c1c(N)n(CCCC)c(=O)[nH]c1=O`, the “hERG current change (%, negative = inhibition) at 1uM” value is listed as 1.22%.
